According to PubChem BioAssay AID1645887 (National Center for Advancing Translational Sciences (NCATS), 2021):
Several values for one entry are separate records, joined by “and”; a condition that tells them apart may be missing. Equal values may be shown once. Out of some 16,000 compounds screened, about 40 (0.2%) were called active. Inconclusive results (about 1%) are left out. Calls come from the whole dose curve; as a rule, active = well fitted activation curve with a large enough effect; inconclusive = small, poorly fitted or top-dose-only effect, or another doubt; inactive = no such curve, though single readings can be large or run the other way. The list shows a part of the results.

Molecular target: Rap guanine nucleotide exchange factor 4 (Homo sapiens) (UniProt Q8WZA2)
Sequence of UniProt Q8WZA2 (Q8WZA2 whole entry, looked up): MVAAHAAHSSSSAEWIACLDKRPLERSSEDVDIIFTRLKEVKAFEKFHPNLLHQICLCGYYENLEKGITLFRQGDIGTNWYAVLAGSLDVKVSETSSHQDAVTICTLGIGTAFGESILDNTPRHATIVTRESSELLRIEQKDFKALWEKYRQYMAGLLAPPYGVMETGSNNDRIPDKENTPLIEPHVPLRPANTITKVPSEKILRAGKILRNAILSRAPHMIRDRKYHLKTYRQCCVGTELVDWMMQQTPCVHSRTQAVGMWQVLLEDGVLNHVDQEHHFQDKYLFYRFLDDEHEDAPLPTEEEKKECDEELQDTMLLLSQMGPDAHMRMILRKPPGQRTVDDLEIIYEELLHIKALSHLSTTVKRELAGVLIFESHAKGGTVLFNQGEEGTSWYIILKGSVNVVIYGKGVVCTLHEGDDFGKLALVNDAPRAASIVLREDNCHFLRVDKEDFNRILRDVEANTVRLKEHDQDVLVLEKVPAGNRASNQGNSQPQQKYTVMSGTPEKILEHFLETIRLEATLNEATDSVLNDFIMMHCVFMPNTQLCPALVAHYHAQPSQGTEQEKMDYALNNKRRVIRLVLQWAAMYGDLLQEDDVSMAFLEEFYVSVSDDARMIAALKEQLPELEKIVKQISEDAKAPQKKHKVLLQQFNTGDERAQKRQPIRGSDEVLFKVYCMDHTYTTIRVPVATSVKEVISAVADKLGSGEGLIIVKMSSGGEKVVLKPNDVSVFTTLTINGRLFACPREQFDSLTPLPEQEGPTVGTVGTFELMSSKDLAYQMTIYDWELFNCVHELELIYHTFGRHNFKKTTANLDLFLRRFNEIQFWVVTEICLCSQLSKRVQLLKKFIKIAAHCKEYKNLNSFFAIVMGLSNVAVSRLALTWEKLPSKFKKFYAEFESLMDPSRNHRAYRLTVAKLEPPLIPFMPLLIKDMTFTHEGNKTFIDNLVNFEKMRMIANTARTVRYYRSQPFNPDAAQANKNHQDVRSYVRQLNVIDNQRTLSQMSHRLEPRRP
Test: Validation qHTS for agonist of cAMP-regulated guanine nucleotide exchange factor 4 (EPAC2);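 note: exchange makes BODIPY-GDP fluorescence drop when released from Rap1B; series mostly up to about 150 µM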
Details: EPAC2 Rap1B BODIPY-GDP exchange, fluorescence; activation: stronger effect = higher value
Summary of the method: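 Fluorescent exchange assay: 100 nM EPAC2 with 250 nM RAP1B-BODIPY-GDP and 50 uM GDP; compound added, 5 min at room temperature, then read (ex 480/em 540 nm) every 5 min for 30 min. Normalized to 6.5 mM cAMP agonist control.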
% is set by controls: 0 for no effect and ±100 for the full control effect.

activation, inactive:
CCCCC/C=C\C/C=C\CCCCCCCC(=O)O[C@@H](CO)COC(=O)CCCCCCCCCCCCCCCCC 1.06%, NCc1ccccc1CC(=O)N[C@@H]1C(=O)N2C(C(=O)O)=C(CSc3nnnn3CC(=O)O)CS[C@H]12 0.0791%, CCc1ccccc1OC[C@@H](O)CN[C@H]1CCCc2ccccc21 -5.42%, Cc1sc2ccccc2[n+]1CCC[n+]1c(C)sc2ccccc21 4.56%, CN1CCN(c2ncncc2-c2ccccc2Cl)CC1 -13%, O=C(O)C[C@H]1c2cc(C(F)(F)F)ccc2S(=O)(=O)N1C1CCCC1 -20%, COc1ccccc1C1CN(CC(=O)N2CCC(C(O)c3ccccn3)CC2)Cc2ccccc2O1 (stereo unspecified) -12.8%, Cc1cccc(C)c1Nc1ncccc1C(=O)O -0.571%, COc1ccc(CNC(=O)C2CCCN2c2nc(C)c3ccccc3n2)cc1 (stereo unspecified) 8%, Cc1cc[n+](CCC2CCCCC2)cc1 -1.9%, COc1ncc2nc(-c3cn(C)c4ccccc34)c(=O)n(Cc3ccc(F)cc3)c2n1 1.2%, COc1cc(-c2cnc3ccccc3c2)cc2c1OCCN(S(=O)(=O)C[C@]13CC[C@H](CC1=O)C3(C)C)C2 -0.507%, CC1(C)CCC2(C(=O)O)CC[C@]3(C)C(=CCC4[C@]5(C)CCC(O)C(C)(C)C5C(O)C[C@]43C)C2C1 (stereo partly specified) -42.9%, CC(C)C(NS(C)(=O)=O)c1nnc2n1CCN(Cc1ccc(C#CC(C)(C)O)cc1)CC2 (stereo unspecified) -3.74%, CCC1CN(CC(=O)NCc2ccc3c(c2)OCO3)Cc2ccc(Cl)cc2O1 (stereo unspecified) -18.4%, C[N+]1(C)CCC(OC(=O)C(O)(c2ccccc2)C2CCCC2)C1 (stereo unspecified) -1.74% and -0.704%, C[N+](C)(CCOc1ccccc1)Cc1cccs1 -2.61%, O=C(c1ccncc1)N1CCC2(CCCN(Cc3nccs3)C2)CC1 -6.97%, CCCCCCCCCCCCCCCCCCOCC(O)CO (stereo unspecified) -12.1%, O=C(c1cccc(F)c1)N1CCC2(CC1)CCN(c1cccc(-c3ccccc3)c1)CC2 -0.482%, CS(=O)(=O)N1CCC2(CCCN(Cc3ccc(C#N)cc3)C2)CC1 -11.2%, N#Cc1ccc(C(c2ccc(C#N)cc2)n2cncn2)cc1 -4.99%, O=c1c(-c2cc(F)cc(F)c2)nc2cncnc2n1Cc1ccccc1Cl 15.6%, CN(C)c1ncc2nc(-c3ccc(Cl)cc3)c(=O)n(C)c2n1 2.28%, Cc1ccc(-c2ccnc(-n3ncc(C(=O)NCCN4CCOCC4)c3C3CC3)n2)o1 -14.9%, CS(=O)(=O)Nc1cccc(-c2cc(Nc3ccccc3)ncn2)c1 -2.12%, Cc1c(Cn2ccnc2)c2ccccc2n1CCC(=O)O -29.2%, O=c1c(-c2ccc(Cl)cc2)nc2cnc(Oc3ccccc3)nc2n1C1CC1 -11.1%, O=C1CCN(Cc2ccccc2)CCN1[C@H](CO)c1ccccc1 -17.4% and -4.28%, CC[C@@H]1[C@H]2CCCC(=O)N3CC[C@@H](C[C@@H]1OC(=O)Nc1ccc4c(c1)OCO4)[C@@H]23 -21.7%, CCOC(=O)/C=C/c1ccc(C(F)(F)F)cc1S(=O)(=O)NC(C)(C)C -44.3%, CN(C)CC(C)(O)c1ccc2c(c1)CN(Cc1cccn1-c1ncccn1)CCO2 (stereo unspecified) 4.73%, CC(=O)NC1C(O)C[C@@](O)(C(=O)O)OC1[C@@H](O)C(O)CO (stereo partly specified) -9.28%, CCCCCc1c2c(cc(O)c1C(=O)O)OC(=O)c1c(cc(OC)cc1C(=O)CCCC)O2 1.74%, O=C(Nc1cccc(F)c1)N1CCCC2(CCN(S(=O)(=O)c3ccccc3)CC2)C1 0.0038%, N[C@H](C(=O)O)c1ccc(O)c(C(=O)O)c1 -18% and 5.5%, Cc1noc(C)c1-c1ccc2ncnc(NC3CC3)c2c1 -22.6%, COc1ccc([C@@H]2CC(=O)c3c(O)cc(O)cc3O2)cc1O -2.33%, CC/C=C\C[C@H]1C(=O)CC[C@@H]1CC(=O)O -6.19%, CC1=C(CCC(=O)O)c2cc3nc(cc4[nH]c(cc5[nH]c(cc1n2)c(C)c5C(C)O)c(C)c4C(C)O)C(C)=C3CCC(=O)O (stereo unspecified) 0.598%, CCCOC(=O)c1ccccc1 -7.75%, COc1cc(=O)n2c(c1C(=O)NCc1ccco1)CCN(C(=O)c1ccc(C)c(C)c1)CC2 -7.15%, Cc1nc2cnc(N(C)C)nc2n(Cc2cccs2)c1=O 0.113%, COc1cc(=O)n2c(c1C(=O)N(C)Cc1nonc1C)CCN(Cc1cc(F)ccc1F)CC2 -23%, CN(C)CCCN1c2ccccc2Sc2ccc(C(F)(F)F)cc21 -5.06% and -13.2%, O=c1cnc2cnc(N3CCOCC3)nc2n1Cc1cccs1 -11.1%, Nc1c(CC(=O)O)cccc1C(=O)c1ccccc1 -14.3% and 6.97%, O=Cc1ccccc1C=O 20.1%, O=C(NCc1cccnc1)[C@@H]1CC=C[C@@H]2CCN(C3CCCCC3)C(=O)[C@@H]21 -16.8%, Oc1cc(O)c2c(c1)O[C@H](c1ccc(O)c(O)c1)[C@@H](O)C2 6.69% and -29.2%, Cc1[nH]ccc2c1[nH]c1cc(=O)ccc12 0.528% and -30.4%, O=Cc1c2[nH]c3ccccc3c2cc2[nH]c3ccccc3c12 -0.484% and -4.49% and 10.8%, CC(=O)Oc1ccccc1C(=O)Nc1ncc([N+](=O)[O-])s1 8.36%, CC(=O)OC1CCC2(C)C3CCC4(C)C(CC5CCCCC54C(C)=O)C3CC(=O)[C@@]2(O)C1 (stereo partly specified) 4.1%, CCC(=O)OCC(=O)[C@@]1(OC(=O)CC)[C@@H](C)C[C@@H]2[C@H]3CCC4=CC(=O)C=C[C@]4(C)[C@@]3(F)[C@@H](O)C[C@@]21C -23.8%, COc1cccc(-c2nc(NCCc3c[nH]c4ccc(OC)cc34)c3ccccc3n2)c1 6.97%, C[N+]1(C)CCC(OC(=O)C(c2ccccc2)c2ccccc2)CC1 -17.5% and 2.33% and -24.8%, O=C1CC(c2ccccc2O)Oc2ccc(O)cc21 (stereo unspecified) 4.28%, C#C[C@]1(O)CC[C@H]2[C@@H]3CCC4=C/C(=N/O)CC[C@@H]4[C@H]3CC[C@@]21CC 3.57%, Cc1c(-c2ccccc2)oc2cc(O)ccc2c1=O 2.61%, CN(C)Cc1ccccc1-c1ccc2ncnc(NC3CCNCC3)c2c1 -6.12%, CC(C)CN1CC[C@@]2(CCCN(C(=O)c3cccc(F)c3)C2)C1 -15.1%, COCCN(C)C(=O)c1cnn(-c2ncc3c(n2)-c2ccccc2CC3)c1C -14.3%, CCCCC(O)c1ccccc1 (stereo unspecified) -5.31%, Oc1ccccc1 14.1%, CCCCOCCOCCOCc1cc2c(cc1CCC)OCO2 -16.8% and -17.7%, O=c1cc(-c2ccccc2)oc2c(O)c(O)ccc12 -13.4%, CCN(CC)CCOC(=O)C1(C2CCCCC2)CCCCC1 -1.9% and -1.5% and -13.4%, COc1ccc(Oc2ncc3nc(-c4ccc(Cl)cc4)c(=O)n(C4CC4)c3n2)cc1 -6.17%, Cc1noc(C)c1-c1nc(NC2CC2)c2ccccc2n1 -24.7%, COc1nccc(-c2c(-c3ccc(F)cc3)ncn2C2CCC(O)CC2)n1 (stereo unspecified) -7.78%, COCCCCC(=NOCCN)c1ccc(C(F)(F)F)cc1 -12.8% and -21%, CCNc1ncc2nc(-c3ccc(Cl)cc3)c(=O)n(Cc3cccc(OC)c3)c2n1 8.9%, c1ncc(-c2ccoc2)c(NC2CC2)n1 -1.7%, COc1ccccc1C(=O)N[C@@H]1c2ccccc2C2(CCN(Cc3ccc4c(c3)OCO4)CC2)[C@H]1O -7.27%, OCCNCCCOc1cccc(Cl)c1Cl -3.05%, O=C(Nc1ccc(Cl)cc1)Nc1ccc(Cl)c(Cl)c1 2.17%, Cn1c(=O)c(-c2ccc(Cl)cc2)nc2cnc(Oc3ccccc3)nc21 -6.28%, CCNc1ncc2nc(CCc3ccccc3)c(=O)n(CCC#N)c2n1 -29.2%, O=C(Nc1cccc(F)c1)N1CC2(CCN(C(=O)c3ccncc3)CC2)C1 -11%, O=C1c2c(O)cccc2Cc2cccc(O)c21 0.232% and 3.88%, COc1ccc2[nH]c(=O)c3c(c2c1)OC(C)(C)C=C3 -12.2% and -26.6%, COc1cc2nc(C#Cc3nc4cc(OC)c(OC)cc4[nH]3)[nH]c2cc1OC -18.5%, CN(C)c1ccc(/C=c2\[nH]c(=O)/c(=C\c3ccc(N(C)C)cc3)[nH]c2=O)cc1 -18.1%, CC(C)C[C@@H](N)C(=O)O -8.96%, C#CC(N)CCC(=O)O (stereo unspecified) -29.1%
